Among all 310,000 compounds or so, about 14,000 (4.5%) showed an effect of 50% or more. Effects have a minus sign here. Some of the results follow.
What follows are compounds tested against human ether-à-go-go-related gene (hERG) potassium channel (human, UniProt Q12809) (assay: primary screen, population patch clamp on CHO cells stably expressing hERG).
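Further: peak tail current of the secondary pulse compared with the same well before compound.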

human ether-à-go-go-related gene (hERG) potassium channel, sequence (Q12809 whole entry, looked up): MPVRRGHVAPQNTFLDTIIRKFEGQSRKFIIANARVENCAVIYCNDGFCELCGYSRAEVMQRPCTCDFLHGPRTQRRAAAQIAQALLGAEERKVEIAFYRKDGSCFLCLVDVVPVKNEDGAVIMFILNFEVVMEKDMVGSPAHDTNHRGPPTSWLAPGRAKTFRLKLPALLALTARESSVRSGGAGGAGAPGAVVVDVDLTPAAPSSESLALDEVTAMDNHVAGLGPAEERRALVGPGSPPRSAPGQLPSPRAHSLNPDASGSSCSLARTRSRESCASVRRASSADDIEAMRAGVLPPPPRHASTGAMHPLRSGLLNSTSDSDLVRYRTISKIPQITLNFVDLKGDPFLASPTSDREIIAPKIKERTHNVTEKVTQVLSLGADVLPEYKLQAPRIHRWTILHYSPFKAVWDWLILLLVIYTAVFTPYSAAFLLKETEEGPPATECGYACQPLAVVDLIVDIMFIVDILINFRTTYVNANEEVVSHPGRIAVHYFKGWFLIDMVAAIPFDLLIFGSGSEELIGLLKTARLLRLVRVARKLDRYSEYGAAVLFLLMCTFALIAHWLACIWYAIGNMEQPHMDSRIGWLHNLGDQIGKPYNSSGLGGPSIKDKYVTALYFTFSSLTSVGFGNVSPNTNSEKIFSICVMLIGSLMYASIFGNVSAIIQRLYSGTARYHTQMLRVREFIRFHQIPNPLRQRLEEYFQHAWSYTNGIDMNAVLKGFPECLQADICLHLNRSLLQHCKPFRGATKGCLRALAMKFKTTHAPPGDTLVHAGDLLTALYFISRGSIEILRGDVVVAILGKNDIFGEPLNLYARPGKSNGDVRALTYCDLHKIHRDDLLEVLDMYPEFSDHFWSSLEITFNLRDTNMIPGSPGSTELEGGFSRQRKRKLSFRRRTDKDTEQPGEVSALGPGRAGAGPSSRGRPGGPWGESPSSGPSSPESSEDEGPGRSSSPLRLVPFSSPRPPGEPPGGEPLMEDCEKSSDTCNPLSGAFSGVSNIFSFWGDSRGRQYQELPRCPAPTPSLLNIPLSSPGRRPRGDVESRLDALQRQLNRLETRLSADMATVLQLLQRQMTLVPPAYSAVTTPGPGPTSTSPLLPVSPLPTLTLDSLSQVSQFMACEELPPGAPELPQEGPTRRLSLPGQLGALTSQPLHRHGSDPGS

SMILES	hERG current change (%, negative = inhibition) at 10uM
COc1cc(C(=O)N=c2sc3ccccc3n2C)cc(OC)c1OC	9.29%
CC(C)CN(CCNC(=O)CC1Oc2ccccc2NC1=O)CC(C)C (stereo not shown)	-27.7%
COCCCN1Cc2cccc(C(=O)O)c2C1=O	-3.51%
C/C(=N\NC(=O)CCc1ccc(S(=O)(=O)N2CCOCC2)cc1)c1ccccc1Cl	3.18%
COc1ccc(CC(=O)Nc2nc(-c3ccccc3)c(C(C)=O)s2)cc1OC	19.8%
COc1cccc(C(=O)NCc2ccccc2OC)c1	-4.18%
Cc1cc2nnc(SCc3ccccc3)n2c(N)n1	-14.8%
COCCN(Cc1ccccc1)C(=O)c1cccc(S(=O)(=O)N(C)c2c(C)n(C)n(-c3ccccc3)c2=O)c1	-10.7%
Cc1cccc(NC2=NC3(CCCCC3)N=C(N)N2)c1	-0.675%
Cc1cc(-c2nnc(CCC(=O)NC(C)c3cccc4ccccc34)o2)no1 (stereo not shown)	-3.86%
CC(=O)Nc1nc2ccc(C(=O)NC3CCCCC3)cc2s1	-1.99%
CC(C)[n+]1ccn(C2=C([O-])c3ccccc3C(=O)/C2=N\S(=O)(=O)c2ccccc2)c1	10.8%
COc1ccc(-n2nnc3c(SCC(=O)OCc4ccccc4)ncnc32)cc1	1.5%
O=C(c1cccc2ccccc12)n1nnc2ccccc21	11.7%
O=C(NC(C(=O)O)c1ccccc1)c1ccc(S(=O)(=O)N2CCOCC2)cc1 (stereo not shown)	-6.67%
Cc1cc(-c2ccccc2)nc(SC(C(=O)O)c2ccccc2)n1 (stereo not shown)	26.5%
COC(=O)CSc1nc2ccccc2o1	5.57%
CC1CCC(NC(=O)C2c3ccccc3C(=O)N2Cc2ccc3c(c2)OCO3)CC1 (stereo not shown)	8.2%
CCOC(=O)N1CCN(Cc2nc3cc(NC(=O)c4cccs4)ccc3n2CC)CC1	-55.3%
C/C(=C1/SC(N2CCOCC2)=NC1=O)c1ccc(Br)cc1	14.8%
Cc1ccccc1N1CCN(Cc2ccc3c(c2)OCO3)CC1	-31.2%
Cc1cc(C(=O)c2ccccc2)c(NC(=O)CN2CCOCC2)s1	6.31%

SMILES	hERG current change (%, negative = inhibition) at 10uM
CC(=O)Nc1cc(C(=O)N2CCc3ccccc3C2)ccc1Sc1ccc(C)cc1	-53.6%
Cc1ccc(NC(=O)NC(=O)CN2CCCC2c2ccc3c(c2)OCCO3)cc1C (stereo not shown)	-3.12%
O=C(NCc1cccnc1)C1CCN(c2ccc(S(=O)(=O)N3CCOCC3)cc2Cl)CC1	-41.3%
O=C(CSc1nnc2scc(-c3ccc(F)cc3)n12)NCc1ccco1	9.31%
Cc1ccsc1C(=O)OCC(=O)NCCC1=CCCCC1	10.8%
CCN(CC)S(=O)(=O)c1ccc(-c2nnc(SCc3nnc(-c4ccc(C)cc4)o3)n2CC)cc1	-55.2%
C/C(Cl)=C/Cn1c(SC(C)C)nc2c1c(=O)[nH]c(=O)n2C	-6.63%
CC(=O)Nc1ccc(NC(=O)COC(=O)c2ccccc2SCC(=O)N2CCCC2)cc1	5.48%
CC1(C)O[C@@H]2[C@H](O1)[C@@H](COS(=O)(=O)[O-])O[C@H]2n1cnc2c(=O)[nH]cnc21.[K+]	19.8%
O=C(/C=C/C=C/c1ccccc1)c1ccco1	9.52%
Cc1cc(=O)[nH]c(CN2CCOCC2)n1	17.3%
O=S(=O)(NC1CC1)c1ccc(S(=O)(=O)N(Cc2ccccn2)C2CCCC2)cc1	-47.2%
CN1C(=O)/C(=C\c2ccc(OC(=O)c3ccco3)cc2)SC1=S	24.1%
Cn1nccc1C(=O)N1CCN(c2ncccn2)CC1	14.6%
CS(=O)(=O)c1ccc(C(=O)Nc2cc(-c3ccccc3)nn2-c2ccccc2)cc1	-23.3%
CO/C=C\C=C/c1nnn(-c2ccc(Cl)cc2)n1	-0.625%
CCN(C(=O)c1cc2c(=O)[nH]c3ccc(C)cc3c2s1)c1ccc(OC)cc1	9.09%
CCCC(NC(=O)C(C)NC(=O)CO/N=C1\C=C2CCC3C4CCC(C(C)=O)[C@@]4(C)CCC3[C@@]2(C)CC1)C(=O)O (stereo partly shown)	11.6%
Cn1c(Cc2cccc3ccccc23)nnc1SCC(=O)N1CCN(c2ccccc2)CC1	-43.2%
CCc1cc([N+](=O)[O-])cc(CC)c1N	-6.21%
OCCOCCNc1ncnc2c1cnn2-c1ccc(Cl)cc1	9.06%
COc1ccc(NC(=O)c2ncn[nH]2)cc1	7.17%

SMILES	hERG current change (%, negative = inhibition) at 10uM
Cc1c(NC2(C#N)CCCC2)c(=O)n(-c2ccccc2)n1C	14%
COC(=O)c1cc(S(=O)(=O)N2CCCCC2)ccc1N1CCOCC1	-48%
CC(Sc1ccc(Cl)cc1)C(=O)NNC(=O)c1ccncc1 (stereo not shown)	-6.23%
COc1ccc(CCNC(=O)Cc2cccs2)cc1	19.8%
Cc1ccc(S(=O)(=O)N(Cc2cccc(C(F)(F)F)c2)C(=O)N2CCN(C)CC2)cc1	10.3%
N#Cc1nc(COc2ccccc2F)oc1NCCCn1ccnc1	-42.5%
Cc1cccc(NC(=O)Nc2cccnc2)c1C	9.88%
O=C(/C=C/c1ccccc1[N+](=O)[O-])Nc1ccc(S(=O)(=O)Nc2ncccn2)cc1	1.95%
CCc1nnc(NC(=O)c2cc(S(=O)(=O)N3CCCCC3)ccc2N2CCOCC2)s1	-2.95%
N#Cc1ccccc1N/C=C/C(=O)c1ccc(Cl)cc1	-11.1%
COc1cccc(N(CC(=O)NCCSc2ccccc2)S(C)(=O)=O)c1	-6.04%
CCOc1ccc(Cl)cc1CSc1n[nH]c(CC)n1	-4.9%
CC(CCc1ccccc1)NC(=O)C(=O)Nc1ccccc1 (stereo not shown)	-0.607%
COCc1cc(=O)n2c(-c3ccccc3OC)n[nH]c2n1	4.45%
Cc1cc(C(=O)CSc2cccc[n+]2[O-])c(C)n1-c1ccc(OC(F)F)cc1	-61.9%
COc1cccc(CC(=O)N2CCN(S(=O)(=O)c3ccc(Br)cc3)CC2)c1	-41.2%
CCN(c1ccccc1)c1cc(C)nc2ncnn12	2.52%
Cc1ccc(CNC(=O)C2CCC(=O)N(C3CC3)C2)cc1 (stereo not shown)	22.6%
Cc1cc(C)nc(NC(=NCCc2c[nH]c3ccccc23)NC(=O)Nc2ccc(Cl)c(Cl)c2)n1	17.9%
Cc1cc(N2CCN(C(=O)c3ccco3)CC2)n2nc(-c3cccc(F)c3)cc2n1	-36.4%
CCOc1ccc(-n2cc(-c3ccccc3)c3c(=O)[nH]cnc32)cc1	17.2%
CCCCOc1ccc(C(=O)Nn2cnnc2)cc1	-0.225%

SMILES	hERG current change (%, negative = inhibition) at 10uM
O=c1[nH]nc(SCc2cc(Cl)ccc2Cl)c(=O)[nH]1	-9.12%
O=C(COc1ccccc1[N+](=O)[O-])N(C1CCCCC1)C1CCS(=O)(=O)C1 (stereo not shown)	1.99%
COc1ccc(CN2CCC(n3nccc3NC(=O)c3ccc4c(c3)OCO4)CC2)cc1C	-80.6%
Cc1ccc2cc(C3CC(c4ccco4)=NN3S(=O)(=O)c3ccccc3)c(Cl)nc2c1 (stereo not shown)	-2.11%
COc1ncnc(OC)c1S(=O)(=O)Nc1ccc(C(F)(F)F)cc1	7.74%
CCCCOc1ccc(C2CC(=O)NC2=O)cc1 (stereo not shown)	6.05%
CN(C)c1nc2c(c(=O)n(C)c(=O)n2C)n1CC(=O)c1cccs1	-5.11%
CN1OC(COC(=O)c2ccc(Cl)cc2)CC1c1ccccc1 (stereo not shown)	-4.56%
COC(=O)Nc1ccc(S(=O)(=O)NNC(=O)c2c(O)c3ccccc3[nH]c2=O)cc1	19.8%
COc1ccc(C(=O)C2CCCN(S(=O)(=O)N(C)C)C2)c(C)c1 (stereo not shown)	0.683%
COCCOC(=O)C1=C(C)OC(N)=C(C#N)C1c1ccco1 (stereo not shown)	10.3%
C/C=C/C=C\C(=O)Nc1cccc(C2=NOC3(C2)C[C@H](C(N)=O)N(C(=O)/C=C/C)C3)c1 (stereo partly shown)	10%
CC(=O)c1ccc(C(=O)N2CCCC(C(=O)c3ccc(Cl)cc3)C2)s1 (stereo not shown)	-35.1%
O=C(O)C1CCCC2CN3CCc4c([nH]c5ccccc45)C3C(O)C21 (stereo not shown)	13.7%
O=C(CN1C(=O)CCSc2ccc(S(=O)(=O)N3CCOCC3)cc21)Nc1ccccc1Cl	-10.2%
CSCCC(NC(=O)c1ccccc1Cl)C(=O)N1CCN(C(C)=O)CC1 (stereo not shown)	-26.9%
Cn1cccc1/C=N\NC(=O)c1cncc(Br)c1	-9.78%
O=C(c1nc2nc(-c3ccccc3)cc(C(F)(F)F)n2n1)N1CCCCC1	-14.6%
Cn1c(=O)c2c(nc3n2CC(CO)O3)n(C)c1=O (stereo not shown)	4.2%
CS(=O)Cc1cc(Sc2ccccc2)nc(-c2ccncc2)n1 (stereo not shown)	-33%
CCOC(=O)c1nn(-c2ccc(C)cc2)c(=O)cc1OCC(=O)Nc1cccc(OC)c1	1.6%
O=C(CN1CCN(S(=O)(=O)c2ccc(Cl)cc2)CC1)Nc1ccc(F)cc1F	-78.3%
